Reference: the supplement of paper PMC11417369
± gives the standard deviation of the averaged measurements. Some of the results follow.

Tested on: PfAP2-G AP2 domain (GST-tagged)
Assay: gcPBM binding intensity (ln(normalized median fluorescence intensity)); higher = stronger DNA binding
In short: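 DNA-binding domains from P. falciparum, fused to GST and produced in E. coli, were put on an Agilent 4 × 180k double-stranded probe array for 1 h in 1× PBS holding 1% milk, 0.2 mg/ml BSA, 0.5% salmon testes DNA and 0.03% Triton X-100. Probes were primer-extended, 36 bp long and drawn from intergenic genomic regions, with negative controls included. After Alexa488 anti-GST antibody detection and a 488 nm scan, binding intensity was set as the highest Masliner-normalised natural-log median intensity across replicate spots of either probe orientation.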

Sequence | gcPBM binding intensity (ln)
TATTATATTAATGATGGTACAGTGTATATATATAAT [XGTACX_site1286] | 10.8 ± 0.46
ATTTAATTATGTAAGTGTACTTTGGAATATAATATT [XGTACX_site3186] | 11.3 ± 0.84
GTAGCACATATATATTGTACATAATATATACATTAT [XGTACX_site6354] | 11 ± 0.6
TAATAATAAACAACCACACACAAAAAAACAAAAAAA [CACACA_site3269] | 10.1 ± 0.25
TTTTCTTCCTATTATTGTACATATAGTATTCTTTCA [XGTACX_site4428] | 11.2 ± 0.7
AATATAAGTAATTATACACACTTAATATTTATATAC [CACACA_site7334] | 10 ± 0.11
TTTATTTTATAATTCACACATATATACCTATTTTAT [CACACA_site5709] | 9.905 ± 0.021
GTGTGGTGCTCGAGGAGTACAAACAATATGTAATTT [XGTACX_site4160] | 11.5 ± 0.96
TAAACAGACATATAAACACACATATAAACAGACATA [CACACA_site7214] | 9.88 ± 0.14
TTTTTATAGAATTTAACACACATTTCATATAAAAAA [CACACA_site7453] | 9.93 ± 0.11
GTTAGGATAGATTAGACATGCACATAAATGCACTTC [TGCATGCA_site561] | 9.85 ± 0.028
GATATATAAATAAATACACACATAAAATAGAAATAT [CACACA_site6881] | 10.07 ± 0.021
ATTAAAGAAATATATACACACATTATGGGGGAATAA [CACACA_site178] | 10.8 ± 0.48
TTAAAATTCAAAAAAAAAAATCAGAATATCAGAAAA [CACACA_negctrl_site1361] | 9.61 ± 0.16
TATATAACATAATATACACACATTATATGCGTAATT [CACACA_site6098] | 9.88 ± 0.11
ATATTTATTCCTTTTGGTACACAAAAAAAAAAAAAA [XGTACX_site8126] | 11.3 ± 1.1
ACATATTAAAATATATGTACATAAAATATGAAAAAA [XGTACX_site5869] | 11.4 ± 0.83
AATTTAAGCAGAACATATATATATATATATATAAAG [CACACA_negctrl_site769] | 9.55 ± 0.14
TATATGCTATAATATACACACATACCTATATTTATA [CACACA_site6383] | 9.94 ± 0.12
AATTATTTCTTTTACACATGCAATATTTAATTAAAA [TGCATGCA_site598] | 10.2 ± 0.17
TTTAAATGCTTTTTGTGGTGACTTATCCTTTCATAA [XGTACX_negctrl_site109] | 10.11 ± 0.071
TACATATAGAAACACACACACATATATATATATATA [CACACA_site1300] | 10.1 ± 0.42

Sequence | gcPBM binding intensity (ln)
TAGGAGCCTAGACACACACACAAAAAAAAAAAAAAA [CACACA_site6911] | 9.96 ± 0.54
AAAACGAAAATTTGGAAACCAAAGGAAAAACATAAT [GTGCAC_negctrl_site709] | 10.13 ± 0.035
GAACCGTGCAAATGTTGTACACTTTAAAAATATTCT [XGTACX_site4488] | 11.6 ± 0.84
ATATGTGTGTAGTGTTCAATTATATTGATGTGAAGG [TGCATGCA_negctrl_site462] | 10.2 ± 0.2
ATAATATATATATTAACACACATCCTTTTATGTATA [CACACA_site1203] | 9.85
TTATAATAATTTTATGCACACAGAAAAATACAAGGT [CACACA_site9169] | 10.3 ± 0.24
AAAAAGGTTATTGGTACACACATATGTATATATATA [CACACA_site552] | 11.2 ± 0.76
TATTTAATGTGATACTTATATTATTTTATGATTAAA [GTGCAC_negctrl_site25] | 10.1 ± 0.14
TATACATACTCACCCACACACAAAAAAAAAAAAAAA [CACACA_site862] | 10.2 ± 0.61
TATATAAGAATTTTTACACACATGAAAATGTAGATA [CACACA_site3735] | 9.815 ± 0.007
CTATTTCGTATATATAGTACATATTATAACATACTA [XGTACX_site978] | 10.9 ± 0.33
AATTTATATAATTTTGTGCACAATATTCATGTATAT | 10.4 ± 0.2
ATATTTAAAAAAGAGTGTACTCATCTCTTTTAAAAA [XGTACX_site1160] | 11.4 ± 1
ATGTTGCTCATATGAGTGCACGTTTCATTTCAGTTT [GTGCAC_site9865] | 10.3 ± 0.11
GTGTATTTATGTTATACACACAAAAATATTTTGTAT [CACACA_site4305] | 10.3 ± 0.19
AATGTAGGTTTATTTACACACAAATATAGATATATA [CACACA_site6825] | 9.96 ± 0.16
AGCTCTTGTCATTTTGCACACACACCGGTATAGGTT [CACACA_site5654] | 10.21 ± 0.078
AGAAGGTAAAAACACACACACACATACAAAAAAAAA [CACACA_site3767] | 10.3 ± 0.21
TATATATACAGACACATACACACAAATAAAAAAACA [CACACA_site3413] | 10.2 ± 0.25
ACAAAATAAAAACACACACACAAACACAAAAAAATA [CACACA_site3390] | 10.2 ± 0.29
AATCATAAAATCATATGTACACATTTTTCCTATGAT [XGTACX_site8799] | 11.4 ± 0.69
AGACTTTGTACAAACACACACATGAACACAATATTA [CACACA_site1360] | 10.9 ± 0.56
